Assay [1] has as its target FLAG-tagged BCL-RAMBO (1–459) (human) (UniProt Q9BXK5). The assay is described as follows: co-IP; 293T cells co-transfected with a FLAG-tagged and a VSV-tagged protein for 18 h; 0.2% NP-40 lysis buffer (150 mM NaCl, 20 mM Tris-HCl pH 7.4, 10% glycerol); anti-FLAG M2 agarose beads, 4 °C, 3 h; Western blotting. (A western blot detects proteins with antibodies after separation by electrophoresis.)

Protein sequences, listed by entry. Tags and fused reporters are not part of them. Residues count along the entry.
UniProt P38646, residues 47-679: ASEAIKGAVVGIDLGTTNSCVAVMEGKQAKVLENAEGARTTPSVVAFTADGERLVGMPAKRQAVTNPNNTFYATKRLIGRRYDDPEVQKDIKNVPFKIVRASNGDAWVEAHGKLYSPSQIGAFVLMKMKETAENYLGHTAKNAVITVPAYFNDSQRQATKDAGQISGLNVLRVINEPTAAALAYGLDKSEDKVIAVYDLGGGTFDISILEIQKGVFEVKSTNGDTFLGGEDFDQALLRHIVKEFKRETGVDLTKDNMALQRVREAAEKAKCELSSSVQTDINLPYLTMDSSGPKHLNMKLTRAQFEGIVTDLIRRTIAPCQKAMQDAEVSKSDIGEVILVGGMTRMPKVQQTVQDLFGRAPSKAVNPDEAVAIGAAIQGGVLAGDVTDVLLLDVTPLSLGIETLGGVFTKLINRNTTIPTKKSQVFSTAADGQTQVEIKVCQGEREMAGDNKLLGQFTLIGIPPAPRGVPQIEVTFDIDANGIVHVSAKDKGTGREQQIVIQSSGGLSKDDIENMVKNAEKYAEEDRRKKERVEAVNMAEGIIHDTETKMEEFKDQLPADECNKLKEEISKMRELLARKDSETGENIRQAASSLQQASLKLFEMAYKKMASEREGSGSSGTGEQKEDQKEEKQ

Assay [2] deals with FLAG-tagged wild-type human BCL-RAMBO (1–485) (human) (UniProt Q9BXK5). Described as above.
Assay [3] addresses FLAG-tagged BCL-RAMBO (205–459) (human) (UniProt Q9BXK5). The description is as above.
In assay [4] the target is T1, FLAG-tagged BCL-RAMBO (1–223) (human) (UniProt Q9BXK5).
T1 sequence: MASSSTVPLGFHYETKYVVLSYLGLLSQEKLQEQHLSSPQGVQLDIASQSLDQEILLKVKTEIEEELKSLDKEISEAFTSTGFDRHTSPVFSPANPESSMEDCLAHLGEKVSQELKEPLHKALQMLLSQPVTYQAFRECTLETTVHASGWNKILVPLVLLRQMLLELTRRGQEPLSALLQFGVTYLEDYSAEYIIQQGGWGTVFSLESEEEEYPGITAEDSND
The assay is described as above.

The target in assay [5] is FLAG-tagged wild-type human BCL-RAMBO (1–485) (human) (UniProt Q9BXK5). Briefly: co-IP; 293T cells co-transfected with FLAG-BCL-RAMBO, VSV-GRP75 and VSV-VDAC1 together for 18 h; anti-FLAG antibody beads; Western blotting.

These results are taken from article PMC10462657.

These are yes or no findings as the source states them, for the method shown. Binding seen in cells or lysates may run through a third protein. Some results given as binding are weak or reduced against the parent protein; the word gives no strength. For some assays here: Tags and fused reporters may be left off the sequences shown.

With “VSV-GRP75, full-length GRP75 (1–679) (from UniProt P38646 47-679)”, the binding result in assay [1] is reported as “binds”; in assay [2], “binds”; in assay [3], “binds”; in assay [4], “no binding”; in assay [5], “binds”.
